Measured values published in PubChem BioAssay (NCATS).
The inconclusive results got no clear call from the source; some entries with a clear call stand among them for comparison. For some assays here: A potency beside an inconclusive call is a rough fit, not a confirmed value. Activity calls are given as the source filed them. Calls follow the shape of the dose curve; as a rule, active = well fitted curve in the direction sought with a large enough effect; inconclusive = small, poorly fitted or top-dose-only effect, or another doubt; inactive = no such curve, though single readings can be large; an effect the other way counts as inactive or inconclusive.

Legend:
[1] = HPAF-II Cancer Cell Toxicity qHTS against the NCATS CANVASS Library (AID 1347346); also: nearly all actives have a fitted effect of over 55% in size; also: potency is read from the fitted curve at half-maximal effect
Outline: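 1000 HPAF-II cells/well; 4 h pre-incubation; 11-pnt compound titration; 72 h, 37 degrees C/5% CO2; CellTiter-Glo, 15 min RT; luminescence read.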

[2] = target: Nuclear receptor subfamily 1 group I member 3 (Homo sapiens) (UniProt Q14994); assay: qHTS for Constitutive Androstane Receptor (CAR) Agonist screened against the NCATS CANVASS Library (AID 1347373);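 also: every well also contained 1.5 µM PK11195 alongside the test compound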; also: potency is read from the fitted curve at half-maximal effect
UniProt Q14994, sequence (Q14994 whole entry, looked up): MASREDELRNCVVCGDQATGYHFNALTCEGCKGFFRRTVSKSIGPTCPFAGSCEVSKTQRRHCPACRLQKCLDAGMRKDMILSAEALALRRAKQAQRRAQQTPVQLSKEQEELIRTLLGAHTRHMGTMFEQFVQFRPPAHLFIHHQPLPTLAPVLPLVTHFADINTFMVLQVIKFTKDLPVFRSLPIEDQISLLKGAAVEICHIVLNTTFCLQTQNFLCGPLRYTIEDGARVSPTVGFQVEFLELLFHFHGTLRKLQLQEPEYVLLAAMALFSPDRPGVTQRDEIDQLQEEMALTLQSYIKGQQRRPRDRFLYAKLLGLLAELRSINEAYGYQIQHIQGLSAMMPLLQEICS
Outline: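 Luciferase read-out (ONE-Glo, 30 min RT) of CYP2B6-2.2kb promoter activity in double-stable HepG2-hCAR cells after 24hr compound exposure with 1.5uM PK11195 present; viability measured first by CellTiter-Fluor.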

[3] = qHTS for Antimalaria activity screened against the NCATS CANVASS Library (AID 1347380); also: nearly all actives have a fitted effect of over 40% in size; also: potency is read from the fitted curve at half-maximal effect;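 as to activity change, negative = inhibition: Plasmodium falciparum strain Dd2 asexual parasites grown in red blood cells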
Outline: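 SYBR Green fluorescence (ex 485, em 535 nm) read after saponin/Triton lysis and 18 h further incubation; Dd2 asexual blood-stage parasites, 72 h compound exposure, 11-pt concentration series, 2.5% hematocrit, 0.3% parasitemia.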

[4] = Secretion counterscreen for inhibitors of the SERCaMP assay screened against the NCATS CANVASS Library (AID 1347390); settings: SH-SY5Y constitutive GLuc secretion, luminescence, 20 h; activity change, negative = inhibition: at 76.6 µM (top of the series);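 also: light from luciferase secreted into medium read as a measure of general secretion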; also: potency is read from the fitted curve at half-maximal effect
Outline: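 Counterscreen for secretory-pathway interference: after 4 h attachment, SH-SY5Y-GLuc cells were exposed 20 hours to compounds (final 0.001 - 77 uM), then coelenterazine added and GLuc luminescence recorded; Brefeldin A served as control.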

[5] = U-118MG Cancer Cell Toxicity qHTS against the NCATS CANVASS Library (AID 1347351); also: potency is read from the fitted curve at half-maximal effect
Outline: (§1)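 Cells were seeded at 1000 per well, allowed 4 h at 37 degrees C/5% CO2, then pin-treated with an 11-point compound series. After 72 h, viability was read as CellTiter-Glo luminescence following 15min at room temperature.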

[6] = qHTS for activators of Nrf2/ARE signaling pathway screened against the NCATS CANVASS Library (AID 1347391); also: nearly all actives have a fitted effect of over 60% in size
Outline: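 HepG2 ARE-bla; cpd 11-pt qHTS, 16 h 37C/5% CO2; CCF4 substrate 2 h RT; read ex 405 / em 460 + 530 nm. Viability by CellTiter-Glo luminescence, 30 min RT.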

[7] = qHTS for inhibitors of ER calcium dysfunction: SERCaMP assay screened against the NCATS CANVASS Library (AID 1347393); settings: SH-SY5Y GLuc-SERCaMP (Gaussia luciferase released on ER calcium loss) secretion, thapsigargin, luminescence; activity change, negative = inhibition: at 76.6 µM (top of the series) unless noted;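 also: lower secreted reporter signal means inhibitor of ER calcium depletion; nearly all actives have a fitted effect of over 40% in size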
Outline: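 Thapsigargin-induced ER calcium depletion drives GLuc-SERCaMP secretion from SH-SY5Y cells; compounds given 16 h beforehand were scored by lowered coelenterazine luminescence after 4 h challenge.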

[8] = UWB1.289 Cancer Cell Toxicity qHTS against the NCATS CANVASS Library (AID 1347347); also: nearly all actives have a fitted effect of over 60% in size; also: potency is read from the fitted curve at half-maximal effect
Outline: as §1

[9] = Panc-1005 Cancer Cell Toxicity qHTS against the NCATS CANVASS Library (AID 1347349); also: potency is read from the fitted curve at half-maximal effect; nearly all actives have a fitted effect of over 60% in size
Outline: as §1

[10] = A2780 Cisplatin Sensitive Ovarian Cancer Cell Toxicity qHTS against the NCATS CANVASS Library (AID 1347353); also: potency is read from the fitted curve at half-maximal effect; nearly all actives have a fitted effect of over 60% in size
Outline: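 750 cells/well, 4 h settle; 11-pt cpd titration; 72 h, 37 °C, 5% CO2; ATPLite 10 min RT; luminescence read.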

[11] = tested on: NAD(P)H diaphorase (Clostridium kluyveri); assay: Diaphorse counterscreen qHTS: Assay Interference Panel against the NCATS CANVASS Library (AID 1347362); also: potency is read from the fitted curve at half-maximal effect
Outline: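 Counterscreen for coupling-enzyme interference: resorufin fluorescence from resazurin/NADH turnover, read after 5 min at room temperature. Compounds were tested over an 11-point series after 15 min dark preincubation with diaphorase in PBS-Tween.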

[12] = KB-8-5-11 Cancer Cell Toxicity qHTS against the NCATS CANVASS Library (AID 1347364); settings: activity change, negative = toxicity: at 46.1 µM (top of the series); also: nearly all actives have a fitted effect of over 75% in size; also: potency is read from the fitted curve at half-maximal effect
Outline: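 CellTiter-Glo luminescence after 72 h exposure; 500 KB-8-5-11 cells/well, DMEM/10% FBS, 37C, 5% CO2; compounds in 11-pt qHTS. Follow-up confirmation included medium with 1uM tariquidar.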

[13] = qHTS for Hypoxia signaling pathway (HIF-1) antagonists against the NCATS CANVASS Library (AID 1347374)
Outline: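 Beta-lactamase reporter under HRE control in ME-180 cells; CoCl2 stimulus (60 uM solution as added), compounds 11-pt qHTS, 17 h 37C. CCF4 dye 2 h RT, 460/530 nm emission. CellTiter-Glo viability in same wells.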

[14] = qHTS for H2AX Agonists against the NCATS CANVASS Library (AID 1347378); also: potency is read from the fitted curve at half-maximal effect
Outline: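 Phospho-H2AX (S139) in CHO-K1 lysates measured by HTRF, reported as 665/615 nm emission ratio after 24 hr antibody incubation at room temperature. Cells were first treated with a compound series for 3 hr at 37C (0.76% DMSO final).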

[15] = OV-SAHO Cancer Cell Toxicity qHTS against the NCATS CANVASS Library (AID 1347348); settings: OV-SAHO viability, CellTiter-Glo luminescence, 72 h; activity change, negative = cytotoxicity: at 38.3 µM (top of the series); also: potency is read from the fitted curve at half-maximal effect; nearly all actives have a fitted effect of over 55% in size
Outline: as §1

[16] = SW1088 Cancer Cell Toxicity qHTS against the NCATS CANVASS Library (AID 1347350); also: potency is read from the fitted curve at half-maximal effect; nearly all actives have a fitted effect of over 75% in size
Outline: as §1

[17] = UWB1.289-WTBRCA1 Cancer Cell Toxicity qHTS against the NCATS CANVASS Library (AID 1347354); also: potency is read from the fitted curve at half-maximal effect
Outline: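 1000 cells/well, 4 h pre-incubation 37 °C/5% CO2; 11-pnt titration; 72 h; CellTiter-Glo 15 min RT, luminescence.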

[18] = HEK293 18hr Apoptosis Induction qHTS against the NCATS CANVASS Library (AID 1347357); also: potency is read from the fitted curve at half-maximal effect
Outline: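 Caspase-Glo 3/7 luminescence (15 min, room temperature) measured apoptosis after an 18-hour, 37 degrees C exposure of HEK293 cells (500 cells/well) to compounds in 11 points.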

[19] = KB-3-1 Cancer Cell Toxicity qHTS against the NCATS CANVASS Library (AID 1347366); also: potency is read from the fitted curve at half-maximal effect; nearly all actives have a fitted effect of over 75% in size
Outline: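 CellTiter-Glo luminescence measured viability after 72 h at 37C. KB-3-1 cells were seeded at 500 per well in DMEM/10% FBS.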

[20] = MCF7 Cancer Cell Toxicity qHTS against the NCATS CANVASS Library (AID 1347369); settings: activity change, negative = cytotoxicity: at 46 µM (top of the series); also: potency is read from the fitted curve at half-maximal effect
Outline: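 Cytotoxicity was measured as CellTiterGlo luminescence (ATP) after 72 h at 37 °C. The cells were MCF7 at 500 per well, with an 11-point compound concentration series.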

[21] = qHTS for ATAD5 Antagonist screened against the NCATS CANVASS Library (AID 1347370); also: potency is read from the fitted curve at half-maximal effect; nearly all actives have a fitted effect of over 65% in size
Outline: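 HEK293T-ATAD5 luc reporter, 2000 cells/well; 5hr attach; cpd + 10 uM 5-FUrd; 16hr 37C, 5% CO2. Readouts: CellTiter-Fluor fluorescence (1hr), then Amplite luciferase luminescence (30min RT).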

[22] = target: Nuclear receptor subfamily 1 group I member 3 (Homo sapiens) (UniProt Q14994); assay: qHTS for Constitutive Androstane Receptor (CAR) Antagonist screened against the NCATS CANVASS Library (AID 1347372); also: potency is read from the fitted curve at half-maximal effect
Outline: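 Antagonist mode: compound added alongside 50 nM CITCO to HepG2-hCAR-CYP2B6 reporter cells, 24hr at 37C. Viability by CellTiter-Fluor fluorescence, then CAR-driven luciferase by ONE-Glo luminescence.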

[23] = qHTS for Inflammasome Signaling Inhibitors: IL-1-beta AlphaLISA screen against the NCATS CANVASS Library (AID 1347379)
Outline: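 THP-1, 1 hr compound pre-incubation, then LPS 250 ng/mL + ATP 1.25 mM (final); 16 hr total with compound; IL-1B AlphaLISA, ex 680/em 615 nm; 11-point qHTS, up to 57.5 uM final.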

[24] = Cytotoxicity qHTS for assessment of Hepg2 cells membrane integrity screened against the NCATS CANVASS Library (AID 1347387); also: potency is read from the fitted curve at half-maximal effect
Outline: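 LDH release read by fluorescence (560 nm ex/590 nm em) after CytoTox-ONE addition and 10 min RT; signal tracks lysed cells. HepG2, 2000 cells/well, plated overnight; compound 5 hr, 37C, 5% CO2, final 0.59 nM - 46 uM, 11 points.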

[25] = qHTS for Activators of p53 Stress Response Pathway screened against the NCATS CANVASS Library (AID 1347388); also: potency is read from the fitted curve at half-maximal effect
Outline: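 Beta-lactamase reporter driven by p53 response elements in HCT-116 cells, read as the 460 nm/530 nm emission ratio after CCF4 loading, following 16 h of exposure to an 11-point series. Cell viability was measured in the same wells by CellTiter-Glo luminescence.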

[26] = qHTS assay for small molecule disruptors of mitochondrial membrane potential screened against the NCATS CANVASS Library (AID 1347389)
Outline: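 Red/green fluorescence ratio read-out: J-aggregates ex 540/em 590 nm, monomers ex 490/em 535 nm. HepG2, 1 hr compound treatment, then 30 min Mito-MPS dye at 37C. 11-pt qHTS concentration series.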

[27] = qHTS for activators of dead-cell proteases activity screened against the NCATS CANVASS Library (AID 1347392);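 also: luminescence from protease leaking out of membrane-damaged cells cleaving impermeant substrate; potency is read from the fitted curve at half-maximal effect; rising signal means more cytotoxicity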
Outline: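 Luminescent dead-cell protease readout (AAF-aminoluciferin, 15 min, room temperature) after 5 h compound treatment of HepG2 cells (2000/well, pre-attached 18 h). Eleven concentrations.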

Measured: Potency
Tags tell the direction and shape of the fitted curve.

CC1(C)[C@H](Br)CC[C@]23C[C@]4(C)C(=O)CC12C[C@H]34
inconclusive: [2] 7.41 µM [activator, full curve] | [3] 0.0053 µM [cytotoxic, full curve, poor fit]
inactive: [1] | [4]

CN1C(=O)C2C(N=CN2C)N(C)C1=O (stereo not drawn)
inactive: [1] | [3] | [4] | [6] | [7]
inconclusive: [5] 16.8 µM [cytotoxic, partial curve, poor fit]

C[n+]1cc2cc(C(N)=O)[nH]c3c(=N)c(Cl)c(N)c1c23
inactive: [8] | [12]
inconclusive: [1] 29.8 µM [cytotoxic, single point] | [9] 21.1 µM [cytotoxic, single point] | [10] 33.2 µM [cytotoxic, single point] | [13] 16.7 µM [inhibitor, single point] | [14] 34.4 µM [activator, single point]
active: [11] 15.3 µM

C=C1C(=O)O[C@H]2[C@H]1CC/C(CO)=C\CC[C@@]1(C)O[C@@H]21
active: [8] 7.47 µM | [15] 23.6 µM | [5] 18.8 µM | [21] 20.9 µM | [22] 20.9 µM | [14] 21.7 µM | [23] 6.11 µM | [3] 0.0084 µM | [4] 34.3 µM
inconclusive: [16] 29.8 µM [cytotoxic, single point] | [17] 18.8 µM [cytotoxic, partial curve] | [18] 26.4 µM [activator, single point] | [12] 29.6 µM [cytotoxic, single point] | [19] 37.2 µM [cytotoxic, single point] | [20] 37 µM [cytotoxic, single point] | [24] 20.9 µM [rising, partial curve] | [25] 10.5 µM [activator, single point] | [26] 37.1 µM [inhibitor, partial curve, poor fit] | [27] 29.5 µM [activator, single point]
inactive: [2]
